Source: the supplement of paper PMC10126150
Sequences with one replicate were seen in a single cluster, so their values are uncertain.

Tested on: ATP
Assay: switch fluorescence ratio, 500 uM ATP over buffer (Cy3 cluster intensity, sum of 5 cycles each) (fold (ratio)); higher = stronger signal-on switching upon ATP binding; sequences stand for … in TCGTCGGCAGCGTCAGATGTGTATAAGAGACAGTTTTTTTTTTTTTTTTTTTTTTTTT…TC
Details: aptamer strand: ATP DNA aptamer (quencher-CACCTGGGGGAGTATTGCGGAGGAAGG + anchor), 100 nM annealed; ATP concentration: 500 uM; one replicate
Summary of the method: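 The quencher-labelled ATP aptamer, at 100 nM, was annealed to Cy3-labelled switching-strand clusters on a modified Illumina MiSeq flow-cell. The clusters were imaged in selection buffer, then after 15 min with 500 uM ATP at 22 °C, and this buffer/ATP cycle ran five times with NaOH stripping and re-annealing between runs. Per-cluster fluorescence ratios, summed target-cycle over summed buffer-cycle Cy3 intensity, were averaged per switch-domain sequence. Clusters outside 100-1000 RFU were excluded.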
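Also: ATP exposure 15 min at 22 °C before imaging.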

Sequence | switch fluorescence ratio
CACGGATTAA | 1.03
GCTTCATGT | 0.996
CTCTTAAACT | 0.97
TGCAAGATTA | 1.02
TCATTATCAA | 0.951
CTGCGTTGA | 1.02
ATTCAGTGGC | 0.968
AACAGTAAGG | 1.09
CGCGGTTTT | 0.976
ATTAAGGCC | 1.01
GATGCATGGG | 1.01
TACTAACGGT | 1.42
TTATTCTTAC | 1.23
AGCATTCTAC | 2.02
AAAAATGT | 0.973
AAAAGCGCGT | 1.15
TCTTAGCATG | 1.04
CTTCCAAGAG | 1.33
CAAGGGATT | 0.988
AGCAGATTGG | 0.99
ATTACGGATC | 1.75
TTTTCATCGA | 1.02
CCATAATCGT | 1.03
GGGGCAGTT | 0.977
TGTAGGAATT | 0.999
ACATCGCCTC | 1.07

Sequence | switch fluorescence ratio
CTATGAGTTA | 1.02
TGAAAAGGGT | 1.05
TCAGGGTCTG | 0.983
ACGGAGACCA | 1.09
TGGGTGTGAG | 0.995
TGGTAGGGCC | 1.01
ATGTGTCAGT | 0.994
CTCTATTCGG | 1.01
TTAAGTCCTC | 1.01
GCCGAAAGAA | 1.28
AATCTTGAGA | 0.944
TTTAATGGT | 1.01
GCCTAGGTAA | 1.01
CTGGTACTTC | 1.02
TGGAAATCT | 1.07
CTGGTACTTT | 0.958
GCTGTATAGA | 1.04
AAGGCTACCT | 1.07
ATCACGCACG | 1.64
ACTGTTTCAT | 0.986
TGGTGCTGAG | 1.01
TATCAAAGCT | 1.09
CTGGGTGTTG | 1
CCGTTAATTA | 1.13
GGTCTCCGTG | 0.991
ACGAAGCTGG | 1.48

Sequence | switch fluorescence ratio
TTGCAGGGGC | 1.04
ATGGCGAAAG | 1.04
GCTCCAAGGG | 1.06
CTTTCCTAGG | 1.12
ATTACGGGCC | 0.996
ATGGGAAATG | 1.03
AATGGCCCTA | 0.999
TCGGGTGACG | 1.12
TTGACATCA | 1.05
ACGCCGACTG | 1.21
CCTAACCGGG | 1.17
AGGGCTGGAA | 0.99
AGCGACGAAC | 1.46
GAAGGTACTA | 1.06
CATTGCACCG | 1.04
ACCAATGCGG | 1.03
GGCGGTGCGG | 1
TCGCGGTTTC | 1.06
AGCAGACGTT | 1.01
ATCTACCAAT | 1.12
AGAAACGTTC | 1.07
GAAGTGTCAG | 0.994
CAGAGCAGCA | 1.15
ATGGATCGAA | 1.01
CGAACGGCAA | 3.94
TGACATTCCA | 1.04

Sequence | switch fluorescence ratio
GCACAAGCCC | 1.09
GCTTTAATGA | 1.05
ATGGATGTAG | 1.02
CCCACGTGTA | 1.22
CTTGCAGCTG | 1
AACGCAAGTG | 1.05
ACCTATATAC | 1.58
GGGAAACCC | 1.03
GCCCGCGCGG | 1.01
TAATGGATTT | 1.03
ACCTTAGATT | 1.01
AGACGAAGGA | 1.06
ACGACGGACA | 1.62
CCCATGGCCC | 1.01
TCGTCCGTGT | 1.26
GTAGTTTTTG | 1
CGACCCGCT | 1.21
GAGTACGTTC | 0.978
CTATGTTAGG | 0.979
TGCGGTCTTC | 1.1
CGCTTGCAAG | 0.976
TGCTCAGATT | 1.02
AAAGGTTCCT | 1.01
AATTAGGTCA | 0.999
AGGAGCGATT | 1.07
CATCCAAATA | 1.13

Sequence | switch fluorescence ratio
CACCGGTCTG | 1.03
CAGGTTTTGA | 0.993
ACGGAGGCAC | 1.02
TTTAGCGCCC | 0.955
GGCATCTCC | 1.1
TTGCATATCA | 1.13
CCCTCCTCGG | 1.37
AACATTCTAG | 0.97
TAGAGTAGTT | 1.01
AAACAATGGC | 1.31
CCGTAACTTA | 1.27
AAATTATAAC | 0.997
TTCTACGTTC | 1.08
CGTAAAGTCC | 1
TGCAGCTTAT | 1.17
CCACTGGGTT | 1
GCGTAGGGGC | 0.938
ACTCGGAGCA | 1.67
CGAGACCAGT | 1.13
ATCGTTAGGG | 0.944
AGTGTTAGAT | 0.979
AATCGACGTC | 1.05
GACTGTTCGA | 0.982
CAGAGCGCTG | 1.02
AAACACTATC | 1.14
GGATGGGATC | 0.944

Sequence | switch fluorescence ratio
ACCTGATTGT | 1.02
TGAATTGGAG | 1
ATCGGCTCGT | 1.01
AAATTTGTAT | 1.01
AATAGGAGAA | 1.02
AGGGCATATG | 0.909
CCAGAGTCCT | 1.02
TAGACGGGGT | 0.979
ATTGGCCAGG | 1.09
GGATAACTAC | 1.08
GCATCAGATG | 0.982
TTTTAGGTC | 0.957
CTGTAGATTC | 1.03
CCGACGGGGT | 5.18
GGCGTTGAA | 0.982
TCTGGGCTT | 0.982
AAACGTACCT | 1.53
ATAACCCACA | 1.41
TAACTTTTAA | 0.969
AATATAAAAT | 0.989
TGTATGCAGA | 1.03
AATGGTGCCG | 0.998
CGTTACCAGG | 2.06
CGATTAATG | 0.986
TCTACCGGGC | 1.09
GAGAACATTT | 1.01

Sequence | switch fluorescence ratio
GTCCCTCTCC | 1.07
AAGTAATAT | 1.02
ATCTGTTAT | 0.993
CGGCCGGCAC | 1.09
GCTTGGCCTA | 1.02
GCTTAAGCAG | 0.99
CAAGACGTAT | 1.01
GAACATAGT | 0.921
ACGATATGTA | 1.04
TCAGTTATAT | 1
CATTTAGAAA | 1.02
TGTTGGCCAT | 0.971
TTAGAGTACT | 0.958
GGCTCACTAT | 1.03
TGCTAGGATA | 0.993
TGAGGCTCAT | 0.987
GTTGAGCATG | 1.06
TTTAGCAAGA | 1.43
GGCGTCTTCG | 0.997
CCACGTTTGA | 1.02
TGCGTCATCG | 1.02
GGCTCCGAGC | 1.07
TAAAGCGTCA | 0.974
GTAATGAAGA | 0.983
GTTAAACCGA | 1.2
GAGAGTTAGG | 0.986

Sequence | switch fluorescence ratio
TATGCTACCA | 1.04
TCAGGACCAT | 1.01
TCATTACCAG | 1.02
AATCAATAGC | 1.02
GTCTGTATGG | 1.02
GGGGCGTTGT | 1.03
AGGCATTACC | 1.08
GCCTAAGTTA | 1.03
TTCGGTTATC | 1.02
GCCAAAAGCA | 1.05
GGCACCCATG | 0.959
GAGACAATGA | 1.08
CCCTGTCACG | 1.1
GACCCGTTGT | 0.953
AGCCCACCGC | 1.17
CTATCGCGCC | 1.12
ATTTTTTATG | 0.959
GTGGACATTG | 1.01
TAGAAAAAAA | 1.03
